Results from the supplement of paper PMC11741623.
Some of the results follow. Interaction screen of human proteins with wild-type SARS-CoV-2 proteins by split-DHFR complementation in yeast, 1 µg/mL methotrexate. Value = fitness of the pair (three or more lineages) minus that of the viral protein without a human partner, on a scale set by negative (0) and fused positive (1) controls, mean of up to three cultures; higher = more likely to interact. Active = false discovery rate below 0.05 (one-sided t-test) in at least one culture. Nearly all pairs are not hits, and differences among them are mostly noise (correlation between cultures about 0.3); most hits were seen in one culture only. Human sequences are the Swiss-Prot entries looked up by gene name; the clone may be another isoform. NSP2 values were corrected by the authors for a growth advantage. Listed are human proteins with a hit and a random twelfth of the others.

B1: TBATA, Q96M53 (protein)
chain: MATDVQLADYPLMSPKAELKLEKKSGRKPRSPRDSGPQKELVIPGIVDFERIRRALRTPKPQTPGTYCFGRLSHHSFFSRHHPHPQHVTHIQDLTGKPVCVVRDFPAPLPESTVFSGCQMGIPTISVPIGDPQSNRNPQLSSEAWKKELKELASRVAFLTKEDELKKKEKEQKEEPLREQGAKYSAETGRLIPASTRAVGRRRSHQGQQSQSSSRHEGVQAFLLQDQELLVLELLCRILETDLLSAIQFWLLYAPPKEKDLALGLLQTAVAQLLPQPLVSIPTEKLLSQLPEVHEPPQEKQEPPCSQSPKKTKISPFTKSEKPEYIGEAQVLQMHSSQNTEKKTSKPRAES
B2: THAP6, Q8TBB0 (protein)
chain: MVKCCSAIGCASRCLPNSKLKGLTFHVFPTDENIKRKWVLAMKRLDVNAAGIWEPKKGDVLCSRHFKKTDFDRSAPNIKLKPGVIPSIFDSPYHLQGKREKLHCRKNFTLKTVPATNYNHHLVGASSCIEEFQSQFIFEHSYSVMDSPKKLKHKLDHVIGELEDTKESLRNVLDREKRFQKSLRKTIRELKDECLISQETANRLDTFCWDCCQESIEQDYIS
B3: C2orf68, Q2NKX9 (protein)
chain: MEAGPHPRPGHCCKPGGRLDMNHGFVHHIRRNQIARDDYDKKVKQAAKEKVRRRHTPAPTRPRKPDLQVYLPRHRDVSAHPRNPDYEESGESSSSGGSELEPSGHQLFCLEYEADSGEVTSVIVYQGDDPGKVSEKVSAHTPLDPPMREALKLRIQEEIAKRQSQH
B4: AQP3, Q92482 (protein)
chain: MGRQKELVSRCGEMLHIRYRLLRQALAECLGTLILVMFGCGSVAQVVLSRGTHGGFLTINLAFGFAVTLGILIAGQVSGAHLNPAVTFAMCFLAREPWIKLPIYTLAQTLGAFLGAGIVFGLYYDAIWHFADNQLFVSGPNGTAGIFATYPSGHLDMINGFFDQFIGTASLIVCVLAIVDPYNNPVPRGLEAFTVGLVVLVIGTSMGFNSGYAVNPARDFGPRLFTALAGWGSAVFTTGQHWWWVPIVSPLLGSIAGVFVYQLMIGCHLEQPPPSNEEENVKLAHVKHKEQI

molecular target: SARS-CoV-2 M; experiment: yeast fitness gain over the viral ORF with no human partner (scaled fitness); higher = more likely to interact
Experimental: (§1)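 Split mouse DHFR complementation in pooled diploid yeast: human ORFeome clones carry one fragment and viral ORFs the other; barcoded lineages compete in 1 µg/mL methotrexate and fitness is read by barcode sequencing in up to three cultures.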

Row | Binder | yeast fitness gain
1 | B1 | inactive: 0.0835
2 | B2 | inactive: -0.0349
3 | B3 | inactive: 0.0423
4 | B4 | inactive: -0.0061

molecular target: SARS-CoV-2 NSP10; experiment: as above
Experimental: as §1

Row | Binder | yeast fitness gain
5 | B1 | inactive: 0.00387
6 | B2 | inactive: 0.044
7 | B3 | inactive: -0.027

molecular target: SARS-CoV-2 NSP12; experiment: as above
Experimental: as §1

Row | Binder | yeast fitness gain
8 | B1 | inactive: -0.102
9 | B2 | inactive: -0.0404
10 | B3 | inactive: -0.0885
11 | B4 | inactive: -0.0481

molecular target: SARS-CoV-2 NSP13; experiment: as above
Experimental: as §1

Row | Binder | yeast fitness gain
12 | B1 | inactive: -0.115
13 | B2 | inactive: 0.00337
14 | B3 | inactive: 0.0443
15 | B4 | inactive: 0.0517

molecular target: SARS-CoV-2 NSP2; experiment: as above
Experimental: as §1

Row | Binder | yeast fitness gain
16 | B1 | inactive: -0.356
17 | B2 | inactive: -0.127
18 | B3 | inactive: -0.13
19 | B4 | inactive: -0.316

molecular target: SARS-CoV-2 NSP8; experiment: as above
Experimental: as §1

Row | Binder | yeast fitness gain
20 | B1 | inactive: 0.0706
21 | B2 | inactive: -0.00279
22 | B3 | inactive: 0.0703

molecular target: SARS-CoV-2 ORF10; experiment: as above
Experimental: as §1

Row | Binder | yeast fitness gain
23 | B1 | inactive: -0.012
24 | B2 | inactive: 0.0183
25 | B3 | inactive: 0.079
26 | B4 | inactive: 0.046

molecular target: SARS-CoV-2 ORF3B; experiment: as above
Experimental: as §1

Row | Binder | yeast fitness gain
27 | B1 | inactive: -0.127
28 | B2 | inactive: 0.0575
29 | B3 | inactive: -0.0414

molecular target: SARS-CoV-2 ORF6; experiment: as above
Experimental: as §1

Row | Binder | yeast fitness gain
30 | B1 | inactive: 0.128
31 | B2 | inactive: -0.0165
32 | B3 | inactive: -0.0658
33 | B4 | inactive: 0.0237

molecular target: SARS-CoV-2 ORF7B; experiment: as above
Experimental: as §1

Row | Binder | yeast fitness gain
34 | B1 | inactive: 0.146
35 | B2 | inactive: -0.0879
36 | B3 | inactive: -0.265
37 | B4 | inactive: 0.064

molecular target: SARS-CoV-2 ORF8; experiment: as above
Experimental: as §1

Row | Binder | yeast fitness gain
38 | B1 | inactive: -0.0818
39 | B2 | inactive: -0.0886
40 | B3 | inactive: 0.0666
41 | B4 | inactive: -0.0548

molecular target: SARS-CoV-2 ORF9B; experiment: as above
Experimental: as §1

Row | Binder | yeast fitness gain
42 | B1 | inactive: 0.0287
43 | B2 | inactive: 0.0169
44 | B3 | inactive: 0.0298
45 | B4 | inactive: 0.0717

molecular target: SARS-CoV-2 S; experiment: as above
Experimental: as §1

Row | Binder | yeast fitness gain
46 | B1 | inactive: -0.0863
47 | B2 | inactive: -0.00378
48 | B3 | inactive: 0.0545
49 | B4 | inactive: 0.0167

molecular target: SARS-CoV-2 NSP1; experiment: as above
Experimental: as §1

Row | Binder | yeast fitness gain
50 | B2 | inactive: 0.0931

molecular target: SARS-CoV-2 NSP14; experiment: as above
Experimental: as §1

Row | Binder | yeast fitness gain
51 | B2 | inactive: -0.129

molecular target: SARS-CoV-2 NSP16; experiment: as above
Experimental: as §1

Row | Binder | yeast fitness gain
52 | B2 | inactive: 0.0293
53 | B3 | inactive: 0.155

molecular target: SARS-CoV-2 NSP4; experiment: as above
Experimental: as §1

Row | Binder | yeast fitness gain
54 | B2 | inactive: -0.0358

molecular target: SARS-CoV-2 NSP5; experiment: as above
Experimental: as §1

Row | Binder | yeast fitness gain
55 | B2 | inactive: 0.0802
56 | B3 | inactive: 0.0493
57 | B4 | inactive: -0.0578

molecular target: SARS-CoV-2 NSP6; experiment: as above
Experimental: as §1

Row | Binder | yeast fitness gain
58 | B2 | inactive: 0.052
59 | B3 | inactive: 0.0354
60 | B4 | inactive: -0.0483

molecular target: SARS-CoV-2 NSP7; experiment: as above
Experimental: as §1

Row | Binder | yeast fitness gain
61 | B2 | inactive: 0.0887
62 | B3 | inactive: 0.0292

molecular target: SARS-CoV-2 NSP9; experiment: as above
Experimental: as §1

Row | Binder | yeast fitness gain
63 | B2 | inactive: -0.108

molecular target: SARS-CoV-2 ORF7A; experiment: as above
Experimental: as §1

Row | Binder | yeast fitness gain
64 | B2 | inactive: -0.00342
65 | B3 | inactive: -0.0893

molecular target: SARS-CoV-2 NSP15; experiment: as above
Experimental: as §1

Row | Binder | yeast fitness gain
66 | B3 | inactive: -0.0331
